The source of these data is the supplement of paper PMC12632987.

The labels stand for the following.
B1: LC3A_147_484 (protein)
chain: MRVYVDVLVDDEETAEELVRLMEATVEELRAQGIRVELRVEIEEVEPGVYFVEIEVEIEAETEEEEQAAAQRVIDALEAFDEANKDRVLGTLISVEREER
B2: LC3A_free_39_2215 (protein)
chain: SEAEIDALIRRIAEEGGVDYEYVKEKLLEIQKVGGLTPEQMLEIARAILEAVEAGADAREILEEILALTKELVAQGKTPEQIAEEILERIRDFRNLIPLD
B3: LC3A_28_749 (protein)
chain: SAIEKQLEEVIKKAKEAAKKGEPIVLTITVPGDADEEDIERVIKAMEEIAEILKDVKDQTIIVDIDGNLPEEYQNRLIDKAEEIEEKYPNVTVIIALDEE
B4: LC3A_free_39_2231 (protein)
chain: MEEEIEKVIKEIAEEAGIDYEYLREKMEEIKEVGGLSNEEMLEILKELLKAVKAGADAREILDEMLKITKELKAQGKSPEEILEAILEEIRDYRNLIPLD
B5: LC3A_28_676 (protein)
chain: SELEENLKKALEEAKEAAKAGEPVVITINIPGDATEEEVKKFIEKLEEIAKILKDVKGAAIVVNLSKDLKQEHRDKIIDKAEEINEKYPNVTVIIALEEE
B6: LC3A_3_1469 (protein)
chain: MHPLIKEAREALKKRGVSEETIEKIVKYLEKLAKYGVLEVAVETLKEALKNPNATEEKLLEIAEELLKLVEEEKISKEEAKEEGKVLLLELVEIEEIDEE
B7: LC3A_3_1754 (protein)
chain: MEERLKEIRERLEALGFSPEVIEAALEVAKLLLERGFEEAVEVLLEELAELKDLPDEIILDMLEDIKREIEEKDLNEEEVIEVIKEEARVARSESEIIEL
B8: LC3A_3_1761 (protein)
chain: MEEFIEKAEKELKELGADEELIKKAKEALKLLLERGLEETAEKFKEALKELLKKSKELAKQLAEDVLNLLKTSTLSPEELAKEVNSEINAALSESEIEEL
B9: LC3A_3_1858 (protein)
chain: MEEIKEEILELLRELGRSEETIKAAEELAEALIERGYEEALKTLLEELKELENASDELLLEMFKELLRLLKEENLNEEELIEAIKEEARIVKNEEEIIEL
B10: LC3A_3_1857 (protein)
chain: MEEIKKEILELLKKLGRSEETIKAAEELADALIKRGYKKALEKLLEELKKLKNASDELLLDMFKELLAALENEKLNEEELIKKIEEEAKIVKNEQEIIEL
B11: LC3A_74_2071 (protein)
chain: ALSVEEVDRLEELAARLLALIILSEEKGWFSPEEVAEARELRDQLLAVLRQQGALTEAVEGGIELEAELLALRLEEDPEAAKELLKETREEARALLARVS
B12: LC3A_127_207 (protein)
chain: EERKLLEEAERLAEEAIEALDKIPEEGEEARERAIRLLKELAELLKKVPSLKEALKDTQQAIEQLEAMKDLSPAEREEAREQVSMILDGILIEVESELLK
B13: LC3A_147_397 (protein)
chain: AEIIVDVLVKNTPEGKEVVEELIEKLKEVAEKYGKAEVKVEKEVIDENTLYLEITIKIEGISKEDAEKLGNDVADIVDEIDEKYKDIILASLLSIDIEEK
B14: LC3A_3_1605 (protein)
chain: MEELVEEQLERLRAAGFSEAVLEAARRALTALAEKGFEEAAKTLTDELLEAKDLPEEILVDALEEILYEVENKDLNEEEVIKLIKETFRVARLEAEIEEL
B15: LC3A_128_232 (protein)
chain: SELLEDLKEEATAAKAVAKELAAIPEVAEEAAATIAAAEALIALIEAGAPLEEIKAAAQALIAAARKLIAALEKNPNADRVLVNDLEIERANIEDLLEQL
B16: LC3A_28_996 (protein)
chain: SKIDEQIKKALEEAEKAAKAGEPVVITITISKDATQEDIDKVIETMEKIAEILKDIPGSAIVIDIEAGVSQELINKIIDHAEEIEKKYPNVTVIIALDED
B17: LC3A_free_8_2438 (protein)
chain: SNQEFVDKVVEMLDELEEELTKLMKEEGVDELDILELELEIGSTIAEVISNVDSSKEEILKILKEGLERILELAKELGEKIYKKAKELSEKILEEAESML
B18: LC3A_3_1835 (protein)
chain: LEEEVEELLEELREAGHSEEALEAVRELAEALRERGYEEALRTFIELLRELIDLPSELLLELAEEALELVEEEDLSEEELTERIKELARLYRNEAEIEEL
B19: LC3A_28_846 (protein)
chain: SKTEEDIEKALKEAKEAAKKGEPAVIELKVYKGDTEEEIEKIIEALEEIAEILKDLPNQAILINFEEVIDEEHQNKILDKAEEIEKKYPNVTVIIALPEE
B20: LC3A_28_1315 (protein)
chain: MKLEERFKKAIEEVRKAAAAGEPVVVTIEITAEEAKENLEKILELLEELAKEASKAPGATIIVDLDENVPAELRKKIADKADELEKKYPNVTVILAIEDK
B21: LC3A_free_46_2373 (protein)
chain: MEIDIDLYKEGMTEEEAKALAERVAEGIKKIAEELGLEVEVESEVVKNADGSYLVRVKAKIKAPTEEKANEAVKKIVDMMDKIAKETGAAVIISIEKIEP
B22: LC3A_3_1838 (protein)
chain: LEEKKKELLELLKKAGHSEETLKAVKETIDALLAKGYYEAAETFIELLKEDIDLPSEMLLELAKEVLELVETEDLSEEELTERIKELFRLYRNEYEIEEL
B23: LC3A_28_1330 (protein)
chain: SHIEEQLEAAEKAAEEALAKGEDALIEVEISGSTTLEEAEELMERLREIAKKYSPKIKVSIVINLSSSVSQEVIDLIAEKAEEIEKELPNVTVIIALDEE
B24: LC3A_17_595 (protein)
chain: REALRAELEALLAEAAALIAKLAELRPAAAPAAQARLAEAQAKLEAGDLRGAAETLRALADEIAAIFDELEEEGVEEAAVWAMEAGGVSLEAEGLLLKLD
B25: LC3A_free_0_2106 (protein)
chain: MTVVGEVLAITEKALTPEQLKKVKEEMEKIAKELEEEYGMKVEVTVKEVDGRTVFTLKFSKEGLSIEEAIEIVDEVADKLEEKLKELGADVTIYTSVYEE
B26: LC3A_free_46_2315 (protein)
chain: YIGNIIIDIYGVDEETAKKLVEEIKKKAKELAEKYGLELEIKVEIEQNEDGTTYVRIDITLKGEDKEKLEKAVNEIISEVEELAEKYGATAVISYEIEEE
B27: LC3A_28_1119 (protein)
chain: STADAIIAAAKAQVDAAVAAGEETVIEVHIPGSLSQEEVKAVAEEVAALVAAAAEKVKVSLVISLDASVSQEQIDIIADIAEALEKAHPNVNVIIALEER
B28: LC3A_28_729 (protein)
chain: SPLEKSLEAALAEAEAAAAAGKPVVIEITVPGDATQEDIDRLIEALERIAEILAGLKNQTIIINVESGVKQEHIDRIADAAEEIEKKYPNVTVIIALDEE
B29: LC3A_28_1191 (protein)
chain: SLAEESIKSLEEQAKKALESGEPTVLEVNVPSSFTQEDIESLNKAIKEQAEKLKSIPSVTIVINVESGVPQEHIVSLAKTGDEIEEKYPNVTVIIALDED

Over roughly 2,300 sequences, “median log2 fold change of GCK-ALFA target abundance (FLAG IP / Myc IP barcode read proportion)” has its median near 0.095; the lowest 2% begin near -0.47. The list shows a part of the results.

The assay deals with MAP1LC3A, Q9H492. Description: median log2 fold change of GCK-ALFA target abundance (FLAG IP / Myc IP barcode read proportion) (log2 ratio); each designed protein is fused to an ALFA-tag nanobody in HEK293 cells to bring the named protein to FLAG-tagged glucokinase (GCK); Myc marks an untargeted standard; higher = target protein stabilised (more abundant). The settings on record: target protein: 3xFLAG-MCP-GCK-ALFA reporter; HEK293 landing pad (RPLP). In outline: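 An ALFA-nanobody-fused binder library was recombined into HEK293 landing-pad cells and induced with 2 μg mL^−1 doxycycline. Cells were transfected with a plasmid expressing a FLAG-tagged target and a Myc-tagged standard. After 48 h, lysates underwent anti-FLAG and anti-Myc immunoprecipitation, and circular RNA barcodes were reverse transcribed, amplified and sequenced. Target abundance is the per-binder median log2 ratio of FLAG to Myc barcode read proportions. Barcodes needed ≥10^−7 proportion in both replicates, binders ≥3 barcodes per replicate, and a 10^−6 pseudocount was added; the two replicates were pooled.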
Consider B1, for which the “median log2 fold change” value was -0.559.
In the case of B2 it was 0.29; in that of B3, -0.139; in that of B4, 0.305.
In the case of B5, the “median log2 fold change” value worked out at 0.243.
With B6, the “median log2 fold change” value was 0.00392.
With B7, the “median log2 fold change” value was found to be 0.238.
In the case of B8 it was 0.226; in that of B9, 0.217.
The same measure for B10: 0.117; for B11: -0.0671; for B12: 0.353.
In the case of B13 it was -0.0409; in that of B14, 0.175; in that of B15, 0.266.
Consider B16, for which the “median log2 fold change” value is -0.185.
The same measure for B17: -0.119; for B18: -0.314; for B19: -0.293.
In the case of B20 it was 0.302; in that of B21, 0.708; in that of B22, 0.174.
In the case of B23 it was 0.151; in that of B24, 0.135; in that of B25, -0.0524.
B26: the “median log2 fold change” value was 0.207.
The same measure for B27: 0.129; for B28: 0.197.
In the case of B29 it was 0.259.
